Test results published in article PMC7863878.
Results are given in words; binding and its absence hold for the method and conditions named. For part of these data: In cells and extracts the contact can be indirect. Some binding calls cover weakened binding; strength is not graded here. For part of these data: Where a sequence is shown, tags or fusion partners need not be part of it.

Sequences of proteins named here, by UniProt entry; tags and fusion partners are left off. A change or cut given only in a name is not applied to a line headed by its entry. A line that says so, or that is headed by a name, gives the form on record, which may keep a tag or linker. Residues count along the entry.
UniProt O35433: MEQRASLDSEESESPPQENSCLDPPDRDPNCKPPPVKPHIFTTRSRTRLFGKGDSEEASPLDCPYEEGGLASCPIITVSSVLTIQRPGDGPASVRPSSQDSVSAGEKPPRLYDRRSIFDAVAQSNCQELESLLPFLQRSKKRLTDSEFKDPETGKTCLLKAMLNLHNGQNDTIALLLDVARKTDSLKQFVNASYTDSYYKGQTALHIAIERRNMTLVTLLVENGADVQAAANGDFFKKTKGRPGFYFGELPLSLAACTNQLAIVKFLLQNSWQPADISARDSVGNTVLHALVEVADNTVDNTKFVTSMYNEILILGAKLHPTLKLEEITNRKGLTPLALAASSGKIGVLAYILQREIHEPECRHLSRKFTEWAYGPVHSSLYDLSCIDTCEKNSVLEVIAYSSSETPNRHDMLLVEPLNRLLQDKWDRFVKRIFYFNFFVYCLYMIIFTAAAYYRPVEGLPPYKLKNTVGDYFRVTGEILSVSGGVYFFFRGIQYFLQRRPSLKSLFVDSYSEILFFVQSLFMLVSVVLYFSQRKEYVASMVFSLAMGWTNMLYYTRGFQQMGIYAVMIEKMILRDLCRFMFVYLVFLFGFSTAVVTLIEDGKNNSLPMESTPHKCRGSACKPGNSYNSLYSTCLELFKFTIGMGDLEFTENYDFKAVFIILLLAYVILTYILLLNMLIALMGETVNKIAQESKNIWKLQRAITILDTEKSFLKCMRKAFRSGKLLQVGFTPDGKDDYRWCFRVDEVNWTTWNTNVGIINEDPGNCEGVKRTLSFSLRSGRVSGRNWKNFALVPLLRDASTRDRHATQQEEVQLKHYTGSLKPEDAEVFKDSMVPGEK
V1N-GST (GST-fusion protein containing the N terminus of TRPV1): residues 1-433 of O35433
FLAG-1–359 (TRPV1 N-terminal truncation aa 1–359): residues 1-359 of O35433
FLAG-1–110 (TRPV1 membrane-distal domain, aa 1–110): residues 1-110 of O35433
FLAG-111–433 (TRPV1 N-terminal truncation aa 111–433): residues 111-433 of O35433
FLAG-111–359 (TRPV1 N-terminal truncation aa 111–359): residues 111-359 of O35433
UniProt Q704Y3: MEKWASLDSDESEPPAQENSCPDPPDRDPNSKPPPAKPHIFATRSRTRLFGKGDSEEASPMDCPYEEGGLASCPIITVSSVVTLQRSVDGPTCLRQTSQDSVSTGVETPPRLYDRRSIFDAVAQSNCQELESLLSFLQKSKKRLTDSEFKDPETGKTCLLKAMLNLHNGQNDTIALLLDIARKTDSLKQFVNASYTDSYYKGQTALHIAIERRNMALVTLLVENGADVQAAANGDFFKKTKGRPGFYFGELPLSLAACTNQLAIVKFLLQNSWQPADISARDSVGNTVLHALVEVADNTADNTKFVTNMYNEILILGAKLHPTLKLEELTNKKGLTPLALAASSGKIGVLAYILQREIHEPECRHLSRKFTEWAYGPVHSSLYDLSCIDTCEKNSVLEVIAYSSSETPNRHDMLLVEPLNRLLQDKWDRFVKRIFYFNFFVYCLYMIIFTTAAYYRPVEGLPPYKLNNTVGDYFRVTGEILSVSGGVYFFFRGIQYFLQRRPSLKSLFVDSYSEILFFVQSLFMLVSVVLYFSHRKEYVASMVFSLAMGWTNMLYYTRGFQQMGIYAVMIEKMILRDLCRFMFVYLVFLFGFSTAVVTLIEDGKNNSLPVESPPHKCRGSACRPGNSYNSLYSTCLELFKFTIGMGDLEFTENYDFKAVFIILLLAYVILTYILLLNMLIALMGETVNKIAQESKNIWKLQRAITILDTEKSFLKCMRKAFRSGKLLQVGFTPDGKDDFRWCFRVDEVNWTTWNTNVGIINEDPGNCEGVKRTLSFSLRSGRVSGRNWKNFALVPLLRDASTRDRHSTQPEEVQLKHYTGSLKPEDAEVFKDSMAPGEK
TRPV1 N terminus (aa 1–433) fused to the GAL4 DNA-binding domain (V1-Nt-pGBKT7): residues 1-433 of Q704Y3

Tests used:
[1] = target: T1, FLAG-218–401 (Kvβ1 truncation aa 218–401) (mouse) (UniProt P63143); experiment: co-IP; HEK 293T cells co-transfected; Nonidet P-40 lysis buffer (20 mM Tris-HCl pH 7.4, 150 mM NaCl, 1 mM EDTA, 1% NP-40); IP with anti-FLAG; washes with buffer containing 0.5 M NaCl; immunoblot with anti-GFP, anti-HA, anti-FLAG
T1 sequence: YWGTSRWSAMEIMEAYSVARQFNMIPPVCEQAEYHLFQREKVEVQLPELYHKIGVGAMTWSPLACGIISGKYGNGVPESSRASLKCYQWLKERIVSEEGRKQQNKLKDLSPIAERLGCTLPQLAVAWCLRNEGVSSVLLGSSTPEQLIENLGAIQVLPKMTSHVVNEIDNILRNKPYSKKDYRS

[2] = target: T2, FLAG-73–217 (Kvβ1 truncation aa 73–217) (mouse) (UniProt P63143); experiment: as above
T2 sequence: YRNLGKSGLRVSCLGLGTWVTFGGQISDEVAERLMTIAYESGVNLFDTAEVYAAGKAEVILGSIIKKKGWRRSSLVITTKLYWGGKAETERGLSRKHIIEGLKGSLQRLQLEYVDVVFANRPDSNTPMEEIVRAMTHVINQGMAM

Kvβ1-FLAG (mouse) = target: T3, Kvβ1-FLAG (mouse) (UniProt P63143); experiment: as above
T3 sequence: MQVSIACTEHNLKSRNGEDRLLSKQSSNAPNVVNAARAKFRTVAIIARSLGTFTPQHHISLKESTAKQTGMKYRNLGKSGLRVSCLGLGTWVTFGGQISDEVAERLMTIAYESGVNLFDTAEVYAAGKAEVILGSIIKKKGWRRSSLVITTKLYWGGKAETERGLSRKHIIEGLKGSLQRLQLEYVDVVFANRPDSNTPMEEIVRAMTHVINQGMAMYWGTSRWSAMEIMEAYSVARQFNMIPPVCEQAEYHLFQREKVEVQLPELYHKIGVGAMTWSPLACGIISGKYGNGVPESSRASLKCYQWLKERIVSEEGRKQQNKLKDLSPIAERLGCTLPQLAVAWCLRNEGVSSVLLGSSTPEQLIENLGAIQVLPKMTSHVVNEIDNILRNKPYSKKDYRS

[3] = target: T4, Kvβ2 (used as bait beside Kvβ1-FLAG, Fig. S3) (mouse) (UniProt P62482); experiment: as above
T4 sequence: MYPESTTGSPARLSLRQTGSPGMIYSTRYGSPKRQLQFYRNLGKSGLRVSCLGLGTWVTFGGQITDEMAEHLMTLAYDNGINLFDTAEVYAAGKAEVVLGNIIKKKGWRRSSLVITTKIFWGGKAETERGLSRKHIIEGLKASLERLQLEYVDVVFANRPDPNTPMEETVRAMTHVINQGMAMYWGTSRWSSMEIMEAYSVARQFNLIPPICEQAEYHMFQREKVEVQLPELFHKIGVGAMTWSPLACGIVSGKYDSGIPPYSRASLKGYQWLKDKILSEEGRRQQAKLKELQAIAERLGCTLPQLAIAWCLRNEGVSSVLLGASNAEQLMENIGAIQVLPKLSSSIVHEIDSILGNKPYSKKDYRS

[4] = target: FLAG-111–359 (TRPV1 N-terminal truncation aa 111–359) (rat) (UniProt O35433); experiment: as above
[5] = target: FLAG-111–433 (TRPV1 N-terminal truncation aa 111–433) (rat) (UniProt O35433); experiment: as above
[6] = target: FLAG-1–110 (TRPV1 membrane-distal domain, aa 1–110) (rat) (UniProt O35433); experiment: as above
[7] = target: FLAG-1–359 (TRPV1 N-terminal truncation aa 1–359) (rat) (UniProt O35433); experiment: as above
TRPV1-FLAG (rat) = TRPV1-FLAG (rat) (UniProt O35433); experiment: as above
[8] = target: V1-Nt-FLAG (FLAG-tagged TRPV1 N terminus) (rat) (UniProt O35433); experiment: as above
[9] = target: TRPV1 N terminus (aa 1–433) fused to the GAL4 DNA-binding domain (V1-Nt-pGBKT7) (mouse) (UniProt Q704Y3); experiment: two-hybrid; yeast two-hybrid experiment referred to in the text only, no figure; format not told
[10] = target: V1N-GST (GST-fusion protein containing the N terminus of TRPV1) (rat) (UniProt O35433); experiment: pull-down; GST fusion or GST on GSH-Sepharose beads incubated with HEK 293T extract expressing FLAG-Kvβ1, 4 °C overnight, Nonidet P-40 lysis buffer; washes with 0.5 M NaCl; immunoblot; only the target purified
[11] = target: endogenous TRPV1 of mouse DRG neurons (mouse (endogenous in DRG)) (UniProt Q704Y3); experiment: co-IP; homogenised mouse DRG; IP with anti-TRPV1 or control IgG; immunoblot with anti-TRPV1 or anti-Kvβ1; endogenous proteins

Molecule: TRPV1-HA (from UniProt O35433 1-838)
- binding [1]: binds
- binding [2]: binds
- binding (Kvβ1-FLAG (mouse)): binds

Molecule: TRPV1 MPD domain (aa 359–433) (from UniProt O35433 359-433) (domain or fragment)
- binding (Kvβ1-FLAG (mouse)): binds
- binding [3]: no binding

B1: Kvβ1-GFP (protein, UniProt P63143 1-401)
chain: MQVSIACTEHNLKSRNGEDRLLSKQSSNAPNVVNAARAKFRTVAIIARSLGTFTPQHHISLKESTAKQTGMKYRNLGKSGLRVSCLGLGTWVTFGGQISDEVAERLMTIAYESGVNLFDTAEVYAAGKAEVILGSIIKKKGWRRSSLVITTKLYWGGKAETERGLSRKHIIEGLKGSLQRLQLEYVDVVFANRPDSNTPMEEIVRAMTHVINQGMAMYWGTSRWSAMEIMEAYSVARQFNMIPPVCEQAEYHLFQREKVEVQLPELYHKIGVGAMTWSPLACGIISGKYGNGVPESSRASLKCYQWLKERIVSEEGRKQQNKLKDLSPIAERLGCTLPQLAVAWCLRNEGVSSVLLGSSTPEQLIENLGAIQVLPKMTSHVVNEIDNILRNKPYSKKDYRS
- binding [4]: no binding
- binding [5]: binds
- binding [6]: binds
- binding [7]: binds
- binding (TRPV1-FLAG (rat)): binds
- binding [8]: binds

B2: Kvβ2 (precipitated by FLAG-tagged TRPV1 segments, Fig. S3) (protein, UniProt P62482 1-367)
chain: MYPESTTGSPARLSLRQTGSPGMIYSTRYGSPKRQLQFYRNLGKSGLRVSCLGLGTWVTFGGQITDEMAEHLMTLAYDNGINLFDTAEVYAAGKAEVVLGNIIKKKGWRRSSLVITTKIFWGGKAETERGLSRKHIIEGLKASLERLQLEYVDVVFANRPDPNTPMEETVRAMTHVINQGMAMYWGTSRWSSMEIMEAYSVARQFNLIPPICEQAEYHMFQREKVEVQLPELFHKIGVGAMTWSPLACGIVSGKYDSGIPPYSRASLKGYQWLKDKILSEEGRRQQAKLKELQAIAERLGCTLPQLAIAWCLRNEGVSSVLLGASNAEQLMENIGAIQVLPKLSSSIVHEIDSILGNKPYSKKDYRS
- binding [7]: binds

B3: Kvβ1 aa 218–401 segment (yeast two-hybrid) (domain or fragment, UniProt P63143 218-401)
chain: YWGTSRWSAMEIMEAYSVARQFNMIPPVCEQAEYHLFQREKVEVQLPELYHKIGVGAMTWSPLACGIISGKYGNGVPESSRASLKCYQWLKERIVSEEGRKQQNKLKDLSPIAERLGCTLPQLAVAWCLRNEGVSSVLLGSSTPEQLIENLGAIQVLPKMTSHVVNEIDNILRNKPYSKKDYRS
- binding [9]: binds

B4: Kvβ1-FLAG (protein, UniProt P63143 1-401)
chain: MQVSIACTEHNLKSRNGEDRLLSKQSSNAPNVVNAARAKFRTVAIIARSLGTFTPQHHISLKESTAKQTGMKYRNLGKSGLRVSCLGLGTWVTFGGQISDEVAERLMTIAYESGVNLFDTAEVYAAGKAEVILGSIIKKKGWRRSSLVITTKLYWGGKAETERGLSRKHIIEGLKGSLQRLQLEYVDVVFANRPDSNTPMEEIVRAMTHVINQGMAMYWGTSRWSAMEIMEAYSVARQFNMIPPVCEQAEYHLFQREKVEVQLPELYHKIGVGAMTWSPLACGIISGKYGNGVPESSRASLKCYQWLKERIVSEEGRKQQNKLKDLSPIAERLGCTLPQLAVAWCLRNEGVSSVLLGSSTPEQLIENLGAIQVLPKMTSHVVNEIDNILRNKPYSKKDYRS
- binding [10]: binds

B5: endogenous Kvβ1 of mouse DRG neurons (protein, UniProt P63143 1-401)
chain: MQVSIACTEHNLKSRNGEDRLLSKQSSNAPNVVNAARAKFRTVAIIARSLGTFTPQHHISLKESTAKQTGMKYRNLGKSGLRVSCLGLGTWVTFGGQISDEVAERLMTIAYESGVNLFDTAEVYAAGKAEVILGSIIKKKGWRRSSLVITTKLYWGGKAETERGLSRKHIIEGLKGSLQRLQLEYVDVVFANRPDSNTPMEEIVRAMTHVINQGMAMYWGTSRWSAMEIMEAYSVARQFNMIPPVCEQAEYHLFQREKVEVQLPELYHKIGVGAMTWSPLACGIISGKYGNGVPESSRASLKCYQWLKERIVSEEGRKQQNKLKDLSPIAERLGCTLPQLAVAWCLRNEGVSSVLLGSSTPEQLIENLGAIQVLPKMTSHVVNEIDNILRNKPYSKKDYRS
- binding [11]: binds
